# Test results published in PubChem BioAssay AID2546 (National Center for Advancing Translational Sciences (NCATS), 2010).
# Among all 310,000 compounds or so, about 11,000 (3.5%) were called active. This list was built around the results that the source calls inconclusive (neither active nor inactive); the mix of calls is not that of the screen. Calls come from the whole dose curve; as a rule, active = well fitted inhibition curve with a large enough effect; inconclusive = small, poorly fitted or top-dose-only effect, or effect the other way; inactive = flat fitted curve, though single readings scatter. No potency is given beside an inconclusive call; the fits are too rough.
# Assay: VP16 counterscreen qHTS for inhibitors of ROR gamma transcriptional activity;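 note: Gal4-VP16 expression switched on by copper sulfate through the metallothionein promoter; nearly all actives have a fitted effect of over 50% in size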
# Details: Drosophila S2 Gal4-VP16 UAS-luciferase, luminescence, 20 h; activity, negative = inhibition: at 53.6 µM (top of the series)
# % is set by controls: 0 for no effect and ±100 for the full control effect; potency is the fitted concentration of half-maximal effect; tags give direction and shape of the fitted curve.
SMILES,Potency,"activity, negative = inhibition"
Fc1cccc(F)c1CSc1nc2ccccc2[nH]1,"inconclusive [inhibitor, single point]",–
O=[N+]([O-])c1c(C(Cl)Cl)nn(-c2ccccc2)c1N1CCOCC1,"inconclusive [inhibitor, partial curve]",–
O=C1CC(c2ccncc2)c2cc3c(cc2N1)OCCO3 (stereo not drawn),"inconclusive [inhibitor, single point]",–
COc1ccc(-c2n(Cc3ccccc3)c3ccccc3[n+]2Cc2ccccc2)cc1,active: 5.01 µM,–
Cc1ccccc1NC(=O)c1cc2ccccc2o1,–,inactive: 1.48%
COC(=O)c1c(C)[nH]c(C(=O)CC#N)c1C,"inconclusive [inhibitor, single point]",–
CCc1nnc(NC(=O)CSc2nnc(COc3ccccc3C)o2)s1,"inconclusive [inhibitor, single point]",–
O=S(=O)(c1ccc2c(c1)C(=NO)c1cc(S(=O)(=O)N3CCCCC3)ccc1-2)N1CCCCC1,active: 3.16 µM,–
CC(C)CC(NC(N)=O)C(=O)Nc1ccc(Cl)c(Cl)c1 (stereo not drawn),"inconclusive [inhibitor, single point]",–
O=[N+]([O-])c1cc(/C=N/O)ccc1Sc1ccccc1,"inconclusive [inhibitor, single point]",–
CCC(=O)NC(/C=C/c1ccccc1)c1cc([N+](=O)[O-])c2cccnc2c1O (stereo not drawn),active: 2 µM,–
O=C(Nc1ccc(F)cc1)c1cc(S(=O)(=O)N2CCCCC2)ccc1F,–,inactive: -27.7%
CCC(C)/C(C)=N/NC(=O)c1cn(-c2ccccc2)nc1-c1ccccc1 (stereo not drawn),"inconclusive [inhibitor, single point]",–
Fc1ccccc1/C=C1\CCCC2=C1Nc1nnnn1C2c1ccccc1F (stereo not drawn),"inconclusive [inhibitor, single point]",–
Cc1ccc(NC(=O)c2ccc(Cl)c(N3C(=O)C=CC3=O)c2)cc1,active: 3.16 µM,–
COc1ccc(NC(=S)NC(=O)c2cncc(Br)c2)c(OC)c1,"inconclusive [inhibitor, single point]",–
CC(C)N(C(=S)NC1CCCCC1)c1ccccc1,"inconclusive [inhibitor, single point]",–
COc1cccc(OC)c1OCCNC[C@@H]1COc2ccccc2O1,–,inactive: -8.92%
O=C1CNC(=S)N1c1nc(-c2ccccc2)cs1,"inconclusive [inhibitor, full curve]",–
COc1ccccc1NC(=O)C1CCCN(C(=O)NCc2ccccc2)C1 (stereo not drawn),–,inactive: 2.15%
O=C(NCCC1=CCCCC1)c1coc(=O)c(Br)c1,–,inactive: 1.78%
O=C(N/N=C/c1ccccn1)c1ccc(Cl)c(Cl)c1,active: 0.631 µM,–
COc1cccc(C(=O)NN/C(C)=C/C(=O)C(F)(F)C(F)(F)C(F)(F)F)c1,active: 12.6 µM,–
CCCOc1ccc2cc(-c3ccccn3)c(=O)oc2c1,active: 5.01 µM,–
Cc1cc(N2CCOCC2)nc2ccc(NC(=S)NCc3ccc4c(c3)OCO4)cc12,"inconclusive [inhibitor, single point]",–

SMILES,Potency,"activity, negative = inhibition"
CC(C)(C)c1cccc(/C=N/O)c1O,"inconclusive [inhibitor, single point]",–
N/C(=N\OC(=O)c1cc(Cl)ccc1Cl)c1ccccn1,active: 14.1 µM,–
CCn1cc(CCC(=O)NC2CCCC2)c2ccccc21,–,inactive: 5.36%
Cc1ccc(S(=O)(=O)c2c(C)nn(C(C)(C)C)c2OC(=O)c2ccc(Br)o2)cc1,"inconclusive [inhibitor, single point]",–
O=C(Nc1ccc(N2CCCCC2)cc1)c1ccc2c(c1)OCCO2,"inconclusive [activator, full curve, poor fit]",–
Cc1cc(NC(=O)CN(C)S(=O)(=O)c2ccc(-c3ccc(=O)[nH]n3)s2)ccc1Br,"inconclusive [inhibitor, partial curve]",–
CCCCOc1ccccc1C(=O)NNC(=S)NC(=O)c1ccccc1[N+](=O)[O-],"inconclusive [inhibitor, single point]",–
Cc1ccc(C(=O)OCC(=O)Nc2c(C)n(C)n(-c3ccccc3)c2=O)cc1[N+](=O)[O-],–,inactive: -5.4%
Cc1cc(NC(=O)CN2CC3CC(C2)c2cccc(=O)n2C3)nc2c1c(=O)oc1ccccc12 (stereo not drawn),"inconclusive [activator, single point]",–
S=c1[nH]c(-c2ccccc2)cn1/N=C/c1cccc2ccccc12,"inconclusive [inhibitor, single point]",–
Cn1ccnc1C1CCCCN1Cc1nc(-c2ccc(Cl)cc2)no1 (stereo not drawn),"inconclusive [inhibitor, single point]",–
CC1=NN(c2cccc(C(=O)O)c2)C(=O)/C1=C\C=C/c1ccccc1,active: 3.55 µM,–
Cc1cc(C)n(C(C[N+](=O)[O-])c2ccc(Cl)cc2)n1 (stereo not drawn),–,inactive: -0.872%
CCc1ccc(C(=O)NC(=S)Nc2ccc(N3CCOCC3)cc2)cc1,active: 17.8 µM,–
C=CCC(Nc1ccccc1)C12C=CC(O1)C(C(=O)OC)=C2C(=O)OC (stereo not drawn),active: 6.31 µM,–
COC(=O)C1=CN(Cc2ccccc2)C=C(C(=O)OC)C1c1cc(F)ccc1F,–,inactive: 4.48%
CCN1C(=O)N/C(=C/c2ccc(C)o2)C1=O,"inconclusive [inhibitor, single point]",–
CCn1c(C)nc2cc(C(=O)NNC(=S)Nc3ccc(Cl)cc3)ccc21,"inconclusive [inhibitor, single point]",–
O=C(Cn1cnc([N+](=O)[O-])c1)Nc1cc(Oc2ccc(Cl)cc2Cl)cc([N+](=O)[O-])c1,"inconclusive [inhibitor, single point]",–
CCOC(=O)c1ccc(N/C=C/C(=O)c2ccco2)cc1,"inconclusive [inhibitor, single point]",–
Brc1ccc(-c2nc(-c3ccncc3)no2)cc1,"inconclusive [activator, single point]",–
O=C1Nc2ccc(Br)cc2/C1=C/C(=O)c1ccc2c(c1)OCO2,"inconclusive [inhibitor, single point]",–
Cc1cc(C)cc(NC(=O)[C@H](Cc2c[nH]c3ccccc23)NC(=O)[C@@H]2Cc3ccccc3CN2)c1,"inconclusive [inhibitor, single point]",–
COc1ccc(C2/C=C\CN(CC3CC3)C(Cc3ccccc3)C(=O)N2Cc2ccc(F)cc2)cc1 (stereo not drawn),"inconclusive [inhibitor, single point]",–
COc1cc([N+](=O)[O-])ccc1N1C(=O)CC(Sc2nccc(C)n2)C1=O (stereo not drawn),"inconclusive [inhibitor, single point]",–

SMILES,Potency,"activity, negative = inhibition"
CC(C)CN1C(=O)/C(=C/c2ccco2)NC1=S,"inconclusive [inhibitor, single point]",–
CN(C)c1ccc2c(O)cc(=O)n(C)c2c1,–,inactive: -14.7%
C=CCON/C(CCC)=C1\C(=O)C(C(=O)OC)C(C)(C)CC1=NC (stereo not drawn),–,inactive: -20.9%
CCOC(=O)c1ccc(NC(=O)c2cc(F)c(F)cc2Cl)cc1,"inconclusive [activator, single point]",–
BrC(=C\c1ccccc1)/C=N/Nc1nc(N2CCOCC2)nc(N2CCOCC2)n1,"inconclusive [inhibitor, single point]",–
COc1ccc(NC(=O)c2ccc(Cl)c(NC(=O)c3ccncc3)c2)cc1,–,inactive: -5.67%
COc1ccc(OC)c(NC(=O)C2CCCN2C(=O)C2CCC(C)CC2)c1 (stereo not drawn),–,inactive: 6.75%
Cc1cccc(CSc2nc3c(c(=O)n2C)SCC3)c1,"inconclusive [inhibitor, single point]",–
COc1ccccc1-c1ccc2ncnc(NCc3cccnc3)c2c1,"inconclusive [inhibitor, single point]",–
C/C(=N\NC(=O)c1cccc(N/N=C(\C)c2ccccc2)c1)c1ccccc1,"inconclusive [inhibitor, single point]",–
Cc1cc(C)c2cc(CN(CCCN(C)C)C(=S)NCc3ccccc3)c(=O)[nH]c2c1,"inconclusive [inhibitor, single point]",–
COc1cc2c(Nc3ccc(NC(=O)c4ccccc4)cc3)ncnc2cc1OCCCN1CCOCC1,"inconclusive [inhibitor, partial curve]",–
COCCn1c(=S)[nH]c2cc(C(=O)N3CCN(c4ccc(F)cc4)CC3)ccc2c1=O,"inconclusive [inhibitor, single point]",–
CCCCN=C1NN=C(c2ccc(C)c(C)c2)CS1,active: 12.6 µM,–
CCNC(=S)NNC(=O)c1ccccc1OC(F)F,"inconclusive [inhibitor, single point]",–
COc1cc2c(cc1NC(=O)c1cc(-c3ccncc3)nc3ccc(C)cc13)oc1ccccc12,–,inactive: -8.63% [at 0.365 µM]
COC(=O)c1ccc(S(=O)(=O)NCCSc2nnc3c4ccccc4n(C)c3n2)cc1,–,inactive: 4.63%
N#Cc1c2n(c3c(=O)[nH]cnc13)CCCC2,–,inactive: -1.45%
O=C1/C(=C/c2ccccn2)SC(=S)N1NS(=O)(=O)c1ccccc1,–,inactive: 0.0344%
COc1cc2c(cc1OC)CN(c1ccc([N+](=O)[O-])cc1Cl)CC2,active: 17.8 µM,–
CCN1CCN(c2nc(N)c([N+](=O)[O-])c(Nc3cccc(C)c3)n2)CC1,–,inactive: -8.13%
CC(=O)Nc1cccc(NC(=S)Nc2cccc3ccccc23)c1,"inconclusive [inhibitor, single point]",–
COc1cc(/C=C/[N+](=O)[O-])ccc1OC(=O)c1cc2ccccc2oc1=O,active: 7.08 µM,–
